# Assay results: the supplement of paper PMC10037445
# ± gives the standard deviation of the averaged measurements. Whole data set: some 2,900 compounds, median “IRF Lucia reporter activity, fold change vs agonist alone” near 0.9, cut for the highest 2% near 2.8. Some of the results follow.
# Columns and labels:
# RAW-Dual [1] = experiment: IRF Lucia reporter activity, fold change vs agonist alone; cytotoxicity flag (confluency mask): not cytotoxic; higher = enhanced IRF activity
# Summary of the method: (§1)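 After 50 nL of library stock was delivered by pin tool to RAW-Dual macrophages (50,000 cells/well, DMEM, 384-well plates), a PRR agonist was added 1 h later and the plates were kept at 37 °C, 5% CO2. Twenty hours later, IRF was read from supernatant by QuantiLuc luminescence and NF-κB by QuantiBlue absorbance at 620 nm. Reporter activity is stated as fold change over agonist-alone wells. Wells with IncuCyte confluency under 70% of agonist controls in both mask sets were counted as cytotoxic.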
# RAW-Dual [2] = experiment: IRF Lucia reporter activity, fold change vs agonist alone; cytotoxicity flag (confluency mask): cytotoxic (confluency <70% of control); higher = enhanced IRF activity
# Summary of the method: as §1
# RAW-Dual [3] = experiment: IRF Lucia reporter activity, fold change vs agonist alone; higher = enhanced IRF activity; conditions: library stock concentration (final ~1000-fold dilution): 10 mM, agonist: MPLA (TLR4) […]
# Summary of the method: as §1
# [4] = agonist: 3'3'-cGAMP (STING) 10 ug/mL
# [5] = cytotoxicity flag (confluency mask): cytotoxic (confluency <70% of control)
# [6] = cytotoxicity flag (confluency mask): not cytotoxic
smiles,measurement,setting,value
CC(C)c1ccc2c(c1)c(SC(C)(C)C)c(CC(C)(C)C(=O)O)n2Cc1ccc(Cl)cc1 (library stock concentration (final ~1000-fold dilution): 10 mM),IRF Lucia reporter activity,RAW-Dual [1]; [4],0.678
same,IRF Lucia reporter activity,RAW-Dual [1]; agonist: LPS (TLR4) 0.1 ug/mL,0.692
COc1cc(N2CCC(N3CCN(C)CC3)CC2)ccc1Nc1ncnc(Nc2ccccc2S(=O)(=O)C(C)C)n1 (library stock concentration (final ~1000-fold dilution): 10 mM),IRF Lucia reporter activity,RAW-Dual [1]; [4],0.66
same,IRF Lucia reporter activity,RAW-Dual [1]; agonist: LPS (TLR4) 0.1 ug/mL,1.91
Cc1nc(Nc2ncc(C(=O)Nc3c(C)cccc3Cl)s2)cc(N2CCN(CCO)CC2)n1 (library stock concentration (final ~1000-fold dilution): 10 mM),IRF Lucia reporter activity,RAW-Dual [2]; [4],0.0732
same,IRF Lucia reporter activity,RAW-Dual [2]; agonist: LPS (TLR4) 0.1 ug/mL,0.688
Cc1nc(Nc2ncc(C(=O)Nc3c(C)cccc3Cl)s2)cc(N2CCN(CCO)CC2)n1,IRF Lucia reporter activity,RAW-Dual [3]; [5],0.628
CC(C)(C)c1nc(-c2ccc(NC(=O)Nc3cccc(C(F)(F)F)c3)c3ccccc23)c2c(N)nccn12 (library stock concentration (final ~1000-fold dilution): 10 mM),IRF Lucia reporter activity,RAW-Dual [2]; [4],0.0132
same,IRF Lucia reporter activity,RAW-Dual [2]; agonist: LPS (TLR4) 0.1 ug/mL,0.0125
CC(C(O)c1ccc(O)cc1)N1CCC(Cc2ccccc2)CC1.CC(C(O)c1ccc(O)cc1)N1CCC(Cc2ccccc2)CC1.O=C(O)C(O)C(O)C(=O)O (configuration not stated) (library stock concentration (final ~1000-fold dilution): 10 mM),IRF Lucia reporter activity,RAW-Dual [1]; [4],0.738
same,IRF Lucia reporter activity,RAW-Dual [1]; agonist: LPS (TLR4) 0.1 ug/mL,1.53
CC(C(O)c1ccc(O)cc1)N1CCC(Cc2ccccc2)CC1.CC(C(O)c1ccc(O)cc1)N1CCC(Cc2ccccc2)CC1.O=C(O)C(O)C(O)C(=O)O (configuration not stated),IRF Lucia reporter activity,RAW-Dual [3]; [6],1.17
CCNC(=O)Nc1ccc(-c2nc3c(c(N4CCOCC4C)n2)CCN(C2COC2)C3)cc1 (configuration not stated) (library stock concentration (final ~1000-fold dilution): 10 mM),IRF Lucia reporter activity,RAW-Dual [1]; [4],0.803
same,IRF Lucia reporter activity,RAW-Dual [1]; agonist: LPS (TLR4) 0.1 ug/mL,0.984
CCCS(=O)c1ccc2nc(NC(=O)OC)[nH]c2c1 (configuration not stated) (library stock concentration (final ~1000-fold dilution): 10 mM),IRF Lucia reporter activity,RAW-Dual [1]; [4],1.11
same,IRF Lucia reporter activity,RAW-Dual [1]; agonist: LPS (TLR4) 0.1 ug/mL,0.968
CCCS(=O)c1ccc2nc(NC(=O)OC)[nH]c2c1 (configuration not stated),IRF Lucia reporter activity,RAW-Dual [3]; [6],0.743
COc1ccc(CC(N)C(=O)NC2C(CO)OC(n3cnc4c(N(C)C)ncnc43)C2O)cc1.Cl.Cl (configuration not stated) (library stock concentration (final ~1000-fold dilution): 10 mM),IRF Lucia reporter activity,RAW-Dual [1]; [4],0.173
same,IRF Lucia reporter activity,RAW-Dual [1]; agonist: LPS (TLR4) 0.1 ug/mL,2.15
COc1ccc(CC(N)C(=O)NC2C(CO)OC(n3cnc4c(N(C)C)ncnc43)C2O)cc1.Cl.Cl (configuration not stated),IRF Lucia reporter activity,RAW-Dual [3]; [6],2.54
COc1cc2nc(N3CCN(C(=O)C4COc5ccccc5O4)CC3)nc(N)c2cc1OC.CS(=O)(=O)O (configuration not stated) (library stock concentration (final ~1000-fold dilution): 10 mM),IRF Lucia reporter activity,RAW-Dual [1]; [4],0.214
same,IRF Lucia reporter activity,RAW-Dual [1]; agonist: LPS (TLR4) 0.1 ug/mL,1.07
COc1cc2nc(N3CCN(C(=O)C4COc5ccccc5O4)CC3)nc(N)c2cc1OC.CS(=O)(=O)O (configuration not stated),IRF Lucia reporter activity,RAW-Dual [3]; [6],1.66
COc1ccnc2[nH]cc(C(=O)C(=O)N3CCN(C(=O)c4ccccc4)CC3C)c12 (configuration not stated),IRF Lucia reporter activity,RAW-Dual [3]; [6],0.872
COc1ccnc2[nH]cc(C(=O)C(=O)N3CCN(C(=O)c4ccccc4)CC3C)c12 (configuration not stated) (library stock concentration (final ~1000-fold dilution): 10 mM),IRF Lucia reporter activity,RAW-Dual [1]; [4],0.969
same,IRF Lucia reporter activity,RAW-Dual [1]; agonist: LPS (TLR4) 0.1 ug/mL,0.753
c1cncc(-c2c[nH]nn2)c1 (library stock concentration (final ~1000-fold dilution): 10 mM),IRF Lucia reporter activity,RAW-Dual [1]; [4],0.768
same,IRF Lucia reporter activity,RAW-Dual [1]; agonist: LPS (TLR4) 0.1 ug/mL,0.853
CC=C1C(=O)CC2C3CCC4=CC(=O)CCC4(C)C3CCC12C (configuration not stated) (library stock concentration (final ~1000-fold dilution): 10 mM),IRF Lucia reporter activity,RAW-Dual [1]; [4],1.15
same,IRF Lucia reporter activity,RAW-Dual [1]; agonist: LPS (TLR4) 0.1 ug/mL,0.711
CC=C1C(=O)CC2C3CCC4=CC(=O)CCC4(C)C3CCC12C (configuration not stated),IRF Lucia reporter activity,RAW-Dual [3]; [6],0.993
CC(C)(C)S(=O)(=O)c1ccc2nccc(Nc3n[nH]c4ccc(F)cc34)c2c1 (library stock concentration (final ~1000-fold dilution): 10 mM),IRF Lucia reporter activity,RAW-Dual [1]; [4],0.259 ± 0.021
same,IRF Lucia reporter activity,RAW-Dual [1]; agonist: LPS (TLR4) 0.1 ug/mL,0.456 ± 0.079
CCC1OC(=O)C(C)C(OC2CC(C)(OC)C(O)C(C)O2)C(C)C(OC2OC(C)CC(N(C)C)C2O)C(C)(OC)CC(C)C(=O)C(C)C(O)C1(C)O (configuration not stated),IRF Lucia reporter activity,RAW-Dual [3]; [6],1.01
CCC1OC(=O)C(C)C(OC2CC(C)(OC)C(O)C(C)O2)C(C)C(OC2OC(C)CC(N(C)C)C2O)C(C)(OC)CC(C)C(=O)C(C)C(O)C1(C)O (configuration not stated) (library stock concentration (final ~1000-fold dilution): 10 mM),IRF Lucia reporter activity,RAW-Dual [1]; [4],0.478
same,IRF Lucia reporter activity,RAW-Dual [1]; agonist: LPS (TLR4) 0.1 ug/mL,1.19
Cc1cncc(CN2CCC(=C3c4ccc(Cl)cc4CCc4cccnc43)CC2)c1.O=C(O)/C=C/C(=O)O (library stock concentration (final ~1000-fold dilution): 10 mM),IRF Lucia reporter activity,RAW-Dual [2]; [4],0.36
same,IRF Lucia reporter activity,RAW-Dual [2]; agonist: LPS (TLR4) 0.1 ug/mL,0.712
Cc1cncc(CN2CCC(=C3c4ccc(Cl)cc4CCc4cccnc43)CC2)c1.O=C(O)/C=C/C(=O)O,IRF Lucia reporter activity,RAW-Dual [3]; [5],0.902
CC(C)c1cc2c(N3CCN(C4=NCC(C)(C)S4)CC3)ncnc2s1 (library stock concentration (final ~1000-fold dilution): 10 mM),IRF Lucia reporter activity,RAW-Dual [1]; [4],0.767
same,IRF Lucia reporter activity,RAW-Dual [1]; agonist: LPS (TLR4) 0.1 ug/mL,0.945
COc1cccc(CCc2ccccc2OCC(CN(C)C)OC(=O)CCC(=O)O)c1.Cl (configuration not stated),IRF Lucia reporter activity,RAW-Dual [3]; [6],0.981
